Assay results as given in the supplement of paper PMC4967469.
A lower IC50 marks a more sensitive line; fits outside the tested doses are given as limits. For AUC the same curve is integrated over the 256-fold range of doses and scaled to a fraction; it is 1 without any effect and falls as sensitivity rises. For part of these data: An inferred top dose is not printed in the source and was worked back from the curve model. For part of these data: Drugs with an entry number were screened twice under separate entries, and the two screens often disagree.

Tests used:
Assay in all cases: Viability of human cancer cell lines after 72 h of drug (GDSC screen)
[1] = compound: C[C@]1(c2nc3c(C(N)=O)cccc3[nH]2)CCCN1 [ABT-888]; conditions: top dose 5 µM; top dose inferred
Procedure: (§1)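 Human cancer cell lines in 384-well plates, medium with 10% serum, drug for 72 h over a 256-fold dose range (nine 2-fold or five 4-fold steps up to the top dose). Adherent lines were fixed and stained with the nucleic acid dye Syto60, suspension lines read with resazurin; signal relative to control wells, capped at 0 and 100%. One two-parameter sigmoid per drug and line, fitted in a mixed model over all curves with the slope shared within a line.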

[2] = compound: CCn1c(-c2nonc2N)nc2cnc(Oc3cccc(NC(=O)c4ccc(OCCN5CCOCC5)cc4)c3)cc21 [GSK269962A]; conditions: top dose 5 µM; screen: GDSC drug entry 1192; top dose inferred
Procedure: as §1

[3] = compound: C=CC(=O)Nc1cc(-n2c(=O)ccc3cnc4ccc(-c5cn[nH]c5)cc4c32)ccc1C [QL-X-138]; conditions: top dose 10.24 µM; top dose inferred
Procedure: as §1

[4] = compound: Nc1ccn([C@@H]2O[C@H](CO)[C@@H](O)[C@@H]2O)c(=O)n1 [Cytarabine]; conditions: top dose 2 µM
Procedure: as §1

[5] = compound: Cc1ccc(F)c(NC(=O)Nc2ccc(-c3cccc4[nH]nc(N)c34)cc2)c1 [ABT-869]; conditions: top dose 1.024 µM; top dose inferred
Procedure: as §1

[6] = compound: Cc1cnc(-c2cnc(NCCNc3ccc(C#N)cn3)nc2-c2ccc(Cl)cc2Cl)[nH]1 [CHIR-99021]
Procedure: as §1

[7] = compound: COc1cc(O)c2c(c1)/C=C/C[C@H](O)[C@H](O)C(=O)/C=C\C[C@H](C)OC2=O [(5Z)-7-Oxozeaenol]; conditions: top dose 10 µM; top dose inferred
Procedure: as §1

[8] = compound: COc1cc(N2CCC(O)CC2)ccc1Nc1cc(Nc2ccccc2S(=O)(=O)C(C)C)c2cc[nH]c2n1 [MPS-1-IN-1]; conditions: top dose 20 µM; top dose inferred
Procedure: as §1

[9] = compound: O=c1cc(-c2cccc3c2Sc2ccccc2S3)oc(N2CCOCC2)c1 [KU-55933]; conditions: top dose 10 µM
Procedure: as §1

[10] = compound: COc1nc(C)cnc1NS(=O)(=O)c1cccnc1-c1ccc(-c2nnco2)cc1 [Zibotentan]; conditions: top dose 20 µM; top dose inferred
Procedure: as §1

[11] = compound: COc1cc2ncnc(-n3nc(-c4ccccn4)nc3N)c2cc1OC [CP466722]; conditions: top dose 16 µM; top dose inferred
Procedure: as §1

[12] = top dose 2.56 µM, screen: GDSC drug entry 154
[13] = top dose 10 µM, screen: GDSC drug entry 1241, top dose inferred

For 42-MG-BA (glioma, adherent), the AUC [1] was 0.976, the IC50 [1] was > 5 µM and the AUC [2] was 0.896. For the same cell line, the IC50 [2] was > 5 µM, the AUC [3] was 0.839 and the IC50 [3] was 7.67 µM. It also gave an AUC [4] of 0.797, an IC50 [4] of 1.02 µM and an AUC [5] of 0.968. The IC50 [5] was > 1.02 µM, the AUC [6, 12] was 0.966 and the IC50 [6, 12] was > 2.56 µM. The AUC [6, 13] was 0.922, the IC50 [6, 13] was > 10 µM and the AUC [7] was 0.659. For the same cell line, the IC50 [7] was 1.78 µM, the AUC [8] was 0.911 and the IC50 [8] was > 20 µM. The AUC [9] was 0.963, the IC50 [9] was > 10 µM and the AUC [10] was 0.984. The IC50 [10] was > 20 µM, the AUC [11] was 0.922 and the IC50 [11] was > 16 µM.

For CADO-ES1 (Ewing sarcoma, suspension), the AUC [1] was 0.98, the IC50 [1] was > 5 µM and the AUC [2] was 0.828. It also gave an IC50 [2] of 3.15 µM, an AUC [3] of 0.74 and an IC50 [3] of 3.16 µM. For the same cell line, the AUC [4] was 0.889, the IC50 [4] was > 2 µM and the AUC [5] was 0.987. The IC50 [5] was > 1.02 µM, the AUC [6, 13] was 0.967 and the IC50 [6, 13] was > 10 µM. The AUC [7] was 0.794, the IC50 [7] was 4.7 µM and the AUC [8] was 0.75. For the same cell line, the IC50 [8] was 6.64 µM, the AUC [9] was 0.958 and the IC50 [9] was > 10 µM. The AUC [10] was 0.988, the IC50 [10] was > 20 µM and the AUC [11] was 0.605. For the same cell line, the IC50 [11] was 1.95 µM.

COR-L321 (lung, suspension) was tested, and the AUC [1] was 0.98, the IC50 [1] was > 5 µM and the AUC [2] was 0.924. The IC50 [2] was > 5 µM, the AUC [3] was 0.749 and the IC50 [3] was 3.31 µM. The AUC [4] was 0.988, the IC50 [4] was > 2 µM and the AUC [5] was 0.98. The IC50 [5] was > 1.02 µM, the AUC [6, 13] was 0.988 and the IC50 [6, 13] was > 10 µM. The AUC [7] was 0.917, the IC50 [7] was > 10 µM and the AUC [8] was 0.904. For the same cell line, the IC50 [8] was > 20 µM, the AUC [9] was 0.977 and the IC50 [9] was > 10 µM. For the same cell line, the AUC [10] was 0.989, the IC50 [10] was > 20 µM and the AUC [11] was 0.728. The IC50 [11] was 4.46 µM.

For D-423MG (glioma, adherent), the AUC [1] was 0.972, the IC50 [1] was > 5 µM and the AUC [2] was 0.722. For the same cell line, the IC50 [2] was 1.55 µM, the AUC [3] was 0.536 and the IC50 [3] was 0.822 µM. For the same cell line, the AUC [4] was 0.624, the AUC [5] was 0.97 and the IC50 [5] was > 1.02 µM. For the same cell line, the AUC [6, 13] was 0.851, the IC50 [6, 13] was > 10 µM and the AUC [7] was 0.54. For the same cell line, the IC50 [7] was 0.821 µM, the AUC [8] was 0.9 and the IC50 [8] was > 20 µM. The AUC [9] was 0.893, the IC50 [9] was > 10 µM and the AUC [10] was 0.973. The IC50 [10] was > 20 µM, the AUC [11] was 0.683 and the IC50 [11] was 3.66 µM.

D-566MG (glioma, adherent) was tested, and the AUC [1] was 0.969, the IC50 [1] was > 5 µM and the AUC [2] was 0.223. For the same cell line, the IC50 [2] was 0.0492 µM, the AUC [3] was 0.713 and the IC50 [3] was 2.54 µM. It also gave an AUC [4] of 0.633, an IC50 [4] of 0.29 µM and an AUC [5] of 0.957. The IC50 [5] was > 1.02 µM, the AUC [6, 13] was 0.798 and the IC50 [6, 13] was 4.68 µM. The AUC [7] was 0.679, the IC50 [7] was 1.96 µM and the AUC [8] was 0.902. For the same cell line, the IC50 [8] was > 20 µM, the AUC [9] was 0.937 and the IC50 [9] was > 10 µM. For the same cell line, the AUC [10] was 0.981, the IC50 [10] was > 20 µM and the AUC [11] was 0.757. It also gave an IC50 [11] of 5.44 µM.
